Read counts are not given, so values of variants with three or more changes are uncertain.
B1: CPEB3 Ribozyme (parent)
chain: UAACAGGGGGCCACAGCAGAAGCGUUCACGUCGCAGCCCCUGUCAGAUUCUGGUGAAUCUGCGAAUUCUGCUGUAUAUCUC

Variants of: B1
Experiment: self-cleavage, relative activity (ratio to wild type); higher = more cleavage; in vitro, sequencing
How it was run: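 Libraries of CPEB3 self-cleaving ribozyme mutants came from rounds of error-prone PCR and carried barcodes, which DNA sequencing matched to variants. In vitro transcription used T7 RNA polymerase at 37°C for 5 hours, with a further 15 min in DNase I before EDTA stopped the reaction; the ribozymes cleaved during both steps. The RNA was reverse transcribed with template switching and sequenced on Illumina. Relative activity is the cleaved/total read fraction of a variant divided by that of the unmutated ribozyme, averaged over three batches with at least 5 reads.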

| Variant | self-cleavage |
| --- | --- |
| UAACAGGGGGCCUCAGCAGAAGCGUUCACGUCGCAGCCCCUGUCAGAUUCUGGUGAAUCUGCGGAUUCUACUGUAUACCUC [A13U A64G G70A U78C] | 0.27 |
| UAACAGGGGGCCUCAGCAGAAGCGUUCACGUCGCAGCCCCUGUCAGAUUCUGGUGAAUCUGCGGAUUCUGCUGUAUAUCAC [A13U A64G U80A] | 0.96 |
| UAACAGGGGGCCUCAGCAGAAGCGUUCACGUCGCAGCCCCUGUCAGAUUCUGGUGAAUCUGCGUAUUCUGCUGUUUAUCUC [A13U A64U A75U] | 0.5 |
| UAACAGGGGGCCUCAGCAGAAGCGUUCACGUCGCAGCCCCUGUCAGAUUCUGGUGAAUCUGCGAGUUCUGCAGUAUAUCUC [A13U A65G U72A] | 0.33 |
| UAACAGGGGGCCUCAGCAGAAGCGUUCACGUCGCAGCCCCUGUCAGAUUCUGGUGAAUCUGCGAAUUCUGCUGUUUAUGUC [A13U A75U C79G] | 1.3 |
| UAACAGGGGGCCUAAGCGGAAGCGUUCACGUCGCAGCCCCUGUCAGAUUCUGGUGAAUCUGCGUAUUCUGCUGUAUGUCUC [A13U C14A A18G A64U A77G] | 0.12 |
| UAACAGGGGGCCUAAGCAGAAGCGUUCACGUCGCGGCCCUUGCCAGAUUCUGGUGAAUCUGCGAAUUCAGCUGUACAUCUC [A13U C14A A35G C40U U43C U69A U76C] | 0.12 |
| UAACAGGGGGCCUAAGCAGAAGCGUUCACGUCGCGGCCCCUGCCAGAUUCUGGUGAAUCUGCGAAUACUGCUGUAUAUCUC [A13U C14A A35G U43C U67A] | 0.41 |
| UAACAGGGGGCCUAAGCAGAAGCGUUCACGUCGCAGCCCCUGUCGGAUUCCGGUGAAUCUGCGAAUUCUGCUGUAUAUCUC [A13U C14A A45G U51C] | 0.64 |
| UAACAGGGGGCCUUAGCAGAAGCGUUCACGUCGCAGCCCAUGUCAGAUUCUGGUGAAUCUGCGAAUUCUGCUGUAUAUCUC [A13U C14U C40A] | 0.08 |
| UAACAGGGGGCCUUAGCAGAAGCGUUCACGUCGCAGCCCCUGUCAGAUUCUGGUGAAUCUGUGAAUUCUGCUGUAUAUCUC [A13U C14U C62U] | 0.11 |
| UAACAGGGGGCCUUAGCAGAAGCGUUCACGACGCAGCCCCUGUCAGAUUCUGGUGAAUCUGCGAAUUCUGCUGUAUAUCUC [A13U C14U U31A] | 0.42 |
| UAACAGGGGGCCUUAGCAGAAGCGUUCACGUCGCAGCCCCUGUCAGAUUCUGGUGAAACUGCGGAUUCUGCUGUACAUCUC [A13U C14U U58A A64G U76C] | 0.2 |
| UAACAGGGGGCCUCAGAAGAAGCGUUCACGUCGCAGCCCCUGUCAGGUUCUGGUGAAUCUGCGAAUUCUGCUGUAUAUCUC [A13U C17A A47G] | 0.51 |
| UAACAGGGGGCCUCAGGAGAAGCGUUGACGUCGCAGCCCCUGUCAGAUUCUGGUGAAUCUGCGAAUUCCGCUGUAUAUCUC [A13U C17G C27G U69C] | 0.08 |
| UAACAGGGGGCCUCAGGAGAAGCGCUCACGUCGCAGCCCCUGUCAGAUACUGGUGAGUCUGCGAAUUCUGCUGUAUACCUC [A13U C17G U25C U49A A57G U78C] | 0.14 |
| UAACAGGGGGCCUCAGGAGAAGCGUCCACGUCGCAGCCCCUGUCUGAUACUGGUGUAUCUGCGAAUUCUGCUGUAUAUCUC [A13U C17G U26C A45U U49A A56U] | 0.04 |

| Variant | self-cleavage |
| --- | --- |
| UAACAGGGGGCCUCAGUAGAAGCGUCCACGUCGCAGCCCCUGUCAGAUUCAGGUGAAUCUGAGAAUUCUGCUGUAUAUCUC [A13U C17U U26C U51A C62A] | 0.11 |
| UAACAGGGGGCCUCAGUAGAAGCGUUCACGUCGCAGCCCCUGUCAGAUUCCGGUGAGUCUGCGAAUUCUGCUGUAUAUCUC [A13U C17U U51C A57G] | 0.44 |
| UAACAGGGGGCCUCAGCAGAAGGGUUCACGACGCAGCCCCUGCCAGAUUCUGGUGAAUCUGCGAAUUCUGCUGUAUAUCUC [A13U C23G U31A U43C] | 0.06 |
| UAACAGGGGGCCUCAGCAGAAGGGUUCACGUCGCAGCCCCUGUCAGAUCCUGGUGAACCUGCGAAUUCUGCUGUAUAUCUC [A13U C23G U49C U58C] | 0.05 |
| UAACAGGGGGCCUCAGCAGAAGGGUUCACGUCGCAGCCCCUGUCAGAUUCUGGUGAAUCUGCGAAUUCUGCUGAAUAUCUC [A13U C23G U74A] | 0.2 |
| UAACAGGGGGCCUCAGCAGAAGUGUUCACGUCGCGGCCCCUGUCAGAUUCUGGUGAAUCUGCGAAUUCUGCUGUAUAUCUC [A13U C23U A35G] | 1.22 |
| UAACAGGGGGCCUCAGCAGAAGUGUUCACGUCGCAGCCCCUAUCAGAUUCUGGUGAAUCUGCAAUUUCUGCUGUAUAUCUC [A13U C23U G42A G63A A65U] | 0.04 |
| UAACAGGGGGCCUCAGCAGAAGUGUUCACGUCGCAGCCCCUGUCAGAUCCUGGUGAAUCUGCGAAUUCUGCUGUAUAUCUC [A13U C23U U49C] | 0.07 |
| UAACAGGGGGCCUCAGCAGAAGCGUUAACGUCGCAGCCCCUGUCAGAUUCUGGUGAAUACGCGAAUUCUGCCGUAUAUCUC [A13U C27A C59A U60C U72C] | 0.06 |
| UAACAGGGGGCCUCAGCAGAAGCGUUUACGUCGCAGCCCCUGUCAGAUUCUGGUGGAUCUGCGAAUUCUGCUGUAUAUCUC [A13U C27U A56G] | 0.26 |
| UAACAGGGGGCCUCAGCAGAAGCGUUCAAGUCGCAGCCCCAGUCAGAUUCUGGUGGAUCUGCGAAUUCUGCAGUAUAUCUC [A13U C29A U41A A56G U72A] | 0.06 |
| UAACAGGGGGCCUCAGCAGAAGCGUUCAAGUCGCAGCCCCUGUCAGAUUCUGGUGAAUCUGCGAACUCUGCGGUAUAUCUC [A13U C29A U66C U72G] | 0.06 |
| UAACAGGGGGCCUCAGCAGAAGCGUUCAGGUCGCAGCCCCUGUCGGAUCCUGGUGAAUCUGCGAACUCUGCUGUAUAUCUC [A13U C29G A45G U49C U66C] | 0.06 |
| UAACAGGGGGCCUCAGCAGAAGCGUUCAUGUCGCAGCCCCUGUCAGAUUCUGGUGAAUCUGCGAUUUCUGCUGUAUAUCUC [A13U C29U A65U] | 0.11 |
| UAACAGGGGGCCUCAGCAGAAGCGUUCAUGACGCAGCCCCUGUCAGAUUCUGGUGAAUCUGCGAAUUCUGCUGUAUAUCUC [A13U C29U U31A] | 0.17 |
| UAACAGGGGGCCUCAGCAGAAGCGUUCAUGUCGCAGCCCCUGACAGAUACUGGUGAACCUGCGAAUUCUGCUGAAUACCUC [A13U C29U U43A U49A U58C U74A U78C] | 0.21 |
| UAACAGGGGGCCUCAGCAGAAGCGUUCAUGUCGCAGCCCCUGUCAGAUUCUGGGGAAUCUGCGAAUUCUGCUGUAUAUCUC [A13U C29U U54G] | 0.2 |
